Reference: the supplement of paper PMC4967469
Lines with a small IC50 respond at low doses; a limit (>, <) means that the fit lies beyond the doses tested. For AUC the same curve is integrated over the 256-fold range of doses and scaled to a fraction; it is 1 without any effect and falls as sensitivity rises. For part of these data: The top dose, if marked as inferred, was derived from the fitted curves, not read from the paper. For part of these data: Drugs with an entry number were screened twice under separate entries, and the two screens often disagree.

Experiments:
Experiment in all cases: Viability of human cancer cell lines after 72 h of drug (GDSC screen)
[1] = compound: CN(NC(=O)CC(=O)NN(C)C(=S)c1ccccc1)C(=S)c1ccccc1 [Elesclomol]; settings: top dose 0.2 µM; top dose inferred
Method: (§1)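 Human cancer cell lines in 384-well plates, medium with 10% serum, drug for 72 h over a 256-fold dose range (nine 2-fold or five 4-fold steps up to the top dose). Adherent lines were fixed and stained with the nucleic acid dye Syto60, suspension lines read with resazurin; signal relative to control wells, capped at 0 and 100%. One two-parameter sigmoid per drug and line, fitted in a mixed model over all curves with the slope shared within a line.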

[2] = compound: CCCC(=O)OCc1ccc(OC(=O)/C=C(C)/C=C/C=C(C)/C=C/C2=C(C)CCCC2(C)C)cc1 [VNLG/124]; settings: top dose 5.12 µM; top dose inferred
Method: as §1

[3] = compound: CC/C(=C(\c1ccccc1)c1ccc(OCCN(C)C)cc1)c1ccccc1 [Tamoxifen]; settings: top dose 5 µM
Method: as §1

[4] = compound: O=C(Nc1ccc(OC(F)(F)F)cc1)c1sccc1NCc1ccnc2ccccc12 [OSI-930]; settings: top dose 10.24 µM
Method: as §1

[5] = compound: Cc1c(N)nc([C@H](CC(N)=O)NC[C@H](N)C(N)=O)nc1C(=O)N[C@H](C(=O)N[C@H](C)[C@@H](O)[C@H](C)C(=O)N[C@H](C(=O)NCCc1nc(-c2nc(C(=O)NCCC[S+](C)C)cs2)cs1)[C@@H](C)O)[C@@H](OC1OC(CO)C(O)C(O)C1OC1OC(CO)C(O)C(OC(N)=O)C1O)c1cnc[nH]1 [Bleomycin]
Method: as §1

[6] = compound: O=S(=O)(O)c1ccc2cc(N=Nc3cc(S(=O)(=O)O)c4cccnc4c3O)ccc2c1 [NSC-87877]; settings: top dose 16 µM; top dose inferred
Method: as §1

[7] = compound: O=C(/C=C/c1ccc(CN(CCO)CCc2c[nH]c3ccccc23)cc1)NO [LAQ824]; settings: top dose 1.024 µM; top dose inferred
Method: as §1

[8] = compound: O=C(Nc1cccc(Nc2ncc(Br)c(NCCc3cnc[nH]3)n2)c1)N1CCCC1 [BX-912]; settings: top dose 10.24 µM; top dose inferred
Method: as §1

[9] = compound: Cc1ccc(NC(=O)c2ccc(CN3CCN(C)CC3)cc2)cc1Nc1nc(-c2cccnc2)cs1 [Masitinib]; settings: top dose 20 µM
Method: as §1

[10] = top dose 50 µM, screen: GDSC drug entry 1378, top dose inferred
[11] = top dose 64 µM, screen: GDSC drug entry 190

Cell Line	AUC [1]	IC50 [1] [µM]	AUC [2]	IC50 [2] [µM]	AUC [3]	IC50 [3] [µM]	AUC [4]	IC50 [4] [µM]	AUC [5, 10]	IC50 [5, 10] [µM]	AUC [5, 11]	IC50 [5, 11] [µM]	AUC [6]	IC50 [6] [µM]	AUC [7]	IC50 [7] [µM]	AUC [8]	IC50 [8] [µM]	AUC [9]	IC50 [9] [µM]
MPP-89 (mesothelioma, adherent)	0.345	0.00405	0.982	> 5.12	0.954	> 5	0.969	> 10.2	0.884	> 50	0.712	19.3	0.98	> 16	0.663	0.21	0.939	> 10.2	0.98	> 20
SW962 (urogenital system, adherent)	0.691	0.0492	0.963	> 5.12	0.903	> 5	0.978	> 10.2	0.608	6.65	0.409	2.11	0.951	> 16	0.447	0.0443	0.721	3.21	0.977	> 20
LAMA-84 (chronic myeloid leukaemia, suspension)	0.741	0.0618	0.9	> 5.12	0.962	> 5	0.852	8.11	0.95	> 50	0.499	3.96	0.978	> 16	0.491	0.0606	0.84	7.2	0.196	0.153
Detroit562 (head and neck, adherent)	0.696	0.0433	0.982	> 5.12	0.93	> 5	0.979	> 10.2	0.562	4.57	0.643	9.78	0.986	> 16	0.522	0.0733	0.967	> 10.2	0.939	> 20
CTB-1 (B-cell lymphoma, suspension)	0.542	0.017	0.917	> 5.12	0.912	> 5	0.967	> 10.2	0.825	45.7	0.128	< 0.25	0.959	> 16	0.353	0.0215	0.83	9.91	0.845	> 20
SUP-T1 (T-cell lymphoblastic leukaemia, suspension)	0.977	> 0.2	0.984	> 5.12	0.984	> 5	0.949	> 10.2	0.815	24.4	0.043	< 0.25	0.986	> 16	0.281	0.0164	0.686	2	0.863	14.8
ME-1 (acute myeloid leukaemia, suspension)	0.902	> 0.2	0.965	> 5.12	0.986	> 5	0.974	> 10.2	0.977	> 50	0.701	15.4	0.989	> 16	0.437	0.0426	0.98	> 10.2	0.987	> 20
MEG-01 (chronic myeloid leukaemia, suspension)	0.977	> 0.2	0.968	> 5.12	0.987	> 5	0.855	7.42	0.911	> 50	0.351	1.59	0.985	> 16	0.372	0.0291	0.87	8.62	0.234	0.225
PF-382 (T-cell lymphoblastic leukaemia, suspension)	0.937	> 0.2	0.984	> 5.12	0.99	> 5	0.957	> 10.2	0.839	28.1	0.19	0.56	0.983	> 16	0.273	0.016	0.289	0.178	0.879	16.1
NCI-H520 (lung squamous cell carcinoma, adherent)	0.808	0.107	0.986	> 5.12	0.986	> 5	0.917	> 10.2	0.936	> 50	0.739	19.8	0.987	> 16	0.427	0.0401	0.842	7.52	0.852	16.2
LU-135 (small cell lung carcinoma, suspension)	0.325	0.00448	0.967	> 5.12	0.991	> 5	0.992	> 10.2	0.952	> 50	0.602	7.25	0.986	> 16	0.411	0.0383	0.907	9.89	0.843	10.8
NCI-H2029 (small cell lung carcinoma, adherent)	0.981	> 0.2	0.989	> 5.12	0.992	> 5	0.991	> 10.2	0.959	> 50	0.939	> 64	0.988	> 16	0.666	0.176	0.932	> 10.2	0.968	> 20
